# According to the supplement of paper PMC8728848:
# Some of the results follow.
# B1: NKR-PIC (Mus musculus) (protein)
# chain: GTGQKPSREKCCVFIQENLNKTTDCSVNLECPQDWLLHRDKCFHVSQVSNTWEEGQADCGRKGATLLLIQDQEELRFLLDSIKEKYNSFWIGLRFTLPDMNWKWINGTTFNSDVLKITGVTENGSCASILGDKVTPESCASDNRWICQKELNHETPSNDSGT
# Key:
# Experiment in all cases: glycan array binding signal (z-score within array); higher = stronger binding
# Conditions in all cases: glycan notation: IUPAC condensed, linker removed
# [1] = molecular target: Fuc(a1-2)[Gal(a1-3)]Gal(b1-4)GlcNAc(b1-2)Man(a1-3)[Fuc(a1-2)[Gal(a1-3)]Gal(b1-4)GlcNAc(b1-2)Man(a1-6)]Man(b1-4)GlcNAc(b1-4)GlcNAc
# In short: (§1)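 The binding signal is a Z-score computed within each array. Data were drawn from 3228 arrays in the Consortium for Functional Glycomics database, restricted to those with a known protein sequence. Scores were averaged over arrays of the same protein sequence at different concentrations or buffers, and over linkers, and negative values can be taken as non-binding.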
# [2] = molecular target: Fuc(a1-2)[Gal(a1-3)]Gal(b1-4)GlcNAc(b1-2)Man(a1-3)[Fuc(a1-2)[Gal(a1-3)]Gal(b1-4)GlcNAc(b1-2)Man(a1-6)]Man(b1-4)GlcNAc(b1-4)[Fuc(a1-6)]GlcNAc
# In short: as §1
# [3] = molecular target: Fuc(a1-2)[Gal(a1-3)]Gal(b1-4)GlcNAc(b1-3)GalNAc
# In short: as §1
# [4] = molecular target: Fuc(a1-2)[Gal(a1-3)]Gal(b1-4)GlcNAc(b1-6)GalNAc
# In short: as §1
# [5] = molecular target: Fuc(a1-2)[Gal(a1-3)]Gal(b1-4)[Fuc(a1-3)]Glc
# In short: as §1
# [6] = molecular target: Fuc(a1-2)[Gal(a1-3)]Gal(b1-4)[Fuc(a1-3)]GlcNAc
# In short: as §1
# [7] = molecular target: Fuc(a1-2)[Gal(a1-3)]Gal(b1-4)[Fuc(a1-3)]GlcNAc(b1-3)GalNAc
# In short: as §1
# [8] = molecular target: Fuc(a1-2)[Gal(a1-4)]Gal(b1-4)GlcNAc
# In short: as §1
# [9] = molecular target: Fuc(a1-2)[GalNAc(a1-3)]Gal
# In short: as §1
# [10] = molecular target: Fuc(a1-2)[GalNAc(a1-3)]Gal(b1-3)GalNAc(a1-3)[Fuc(a1-2)]Gal(b1-4)GlcNAc
# In short: as §1
# [11] = molecular target: Fuc(a1-2)[GalNAc(a1-3)]Gal(b1-3)GalNAc(b1-3)Gal(a1-4)Gal(b1-4)Glc
# In short: as §1
# [12] = molecular target: Fuc(a1-2)[GalNAc(a1-3)]Gal(b1-3)GlcNAc
# In short: as §1
# [13] = molecular target: Fuc(a1-2)[GalNAc(a1-3)]Gal(b1-3)GlcNAc(b1-2)Man(a1-3)[Fuc(a1-2)[GalNAc(a1-3)]Gal(b1-3)GlcNAc(b1-2)Man(a1-6)]Man(b1-4)GlcNAc(b1-4)GlcNAc
# In short: as §1
# [14] = molecular target: Fuc(a1-2)[GalNAc(a1-3)]Gal(b1-3)GlcNAc(b1-2)Man(a1-3)[Fuc(a1-2)[GalNAc(a1-3)]Gal(b1-3)GlcNAc(b1-2)Man(a1-6)]Man(b1-4)GlcNAc(b1-4)[Fuc(a1-6)]GlcNAc
# In short: as §1
# [15] = molecular target: Fuc(a1-2)[GalNAc(a1-3)]Gal(b1-3)GlcNAc(b1-3)GalNAc
# In short: as §1
# [16] = molecular target: Fuc(a1-2)[GalNAc(a1-3)]Gal(b1-3)GlcNAc(b1-6)GalNAc
# In short: as §1
# [17] = molecular target: Fuc(a1-2)[GalNAc(a1-3)]Gal(b1-4)Glc
# In short: as §1
# [18] = molecular target: Fuc(a1-2)[GalNAc(a1-3)]Gal(b1-4)GlcNAc
# In short: as §1
# [19] = molecular target: Fuc(a1-2)[GalNAc(a1-3)]Gal(b1-4)GlcNAc(b1-2)Man
# In short: as §1
# [20] = molecular target: Fuc(a1-2)[GalNAc(a1-3)]Gal(b1-4)GlcNAc(b1-2)Man(a1-3)[Fuc(a1-2)[GalNAc(a1-3)]Gal(b1-4)GlcNAc(b1-2)Man(a1-6)]Man(b1-4)GlcNAc(b1-4)GlcNAc
# In short: as §1
# [21] = molecular target: Fuc(a1-2)[GalNAc(a1-3)]Gal(b1-4)GlcNAc(b1-2)Man(a1-3)[Fuc(a1-2)[GalNAc(a1-3)]Gal(b1-4)GlcNAc(b1-2)Man(a1-6)]Man(b1-4)GlcNAc(b1-4)[Fuc(a1-6)]GlcNAc
# In short: as §1
# [22] = molecular target: Fuc(a1-2)[GalNAc(a1-3)]Gal(b1-4)GlcNAc(b1-3)Gal(b1-4)GlcNAc
# In short: as §1
# [23] = molecular target: Fuc(a1-2)[GalNAc(a1-3)]Gal(b1-4)GlcNAc(b1-3)Gal(b1-4)GlcNAc(b1-3)Gal(b1-4)GlcNAc
# In short: as §1
# [24] = molecular target: Fuc(a1-2)[GalNAc(a1-3)]Gal(b1-4)GlcNAc(b1-3)GalNAc
# In short: as §1
# [25] = molecular target: Fuc(a1-2)[GalNAc(a1-3)]Gal(b1-4)GlcNAc(b1-3)[Fuc(a1-2)[GalNAc(a1-3)]Gal(b1-4)GlcNAc(b1-6)]GalNAc
# In short: as §1
# [26] = molecular target: Fuc(a1-2)[GalNAc(a1-3)]Gal(b1-4)GlcNAc(b1-6)GalNAc
# In short: as §1
# [27] = molecular target: Fuc(a1-2)[GalNAc(a1-3)]Gal(b1-4)[Fuc(a1-3)]GlcNAc
# In short: as §1
# [28] = molecular target: Fuc(a1-2)[GalNAc(a1-3)]Gal(b1-4)[Fuc(a1-3)]GlcNAc(b1-3)GalNAc
# In short: as §1
# [29] = molecular target: Fuc(a1-2)[GalNAc(a1-4)]Gal(b1-4)GlcNAc
# In short: as §1
# [30] = molecular target: Fuc(a1-2)[GalNAc(b1-3)]Gal
# In short: as §1
# Fuc(a1-3)GlcNAc = molecular target: Fuc(a1-3)GlcNAc
# In short: as §1
# [31] = molecular target: Fuc(a1-3)[Gal(b1-4)]Glc6S
# In short: as §1
# [32] = molecular target: Fuc(a1-3)[Gal(b1-4)]GlcNAc
# In short: as §1
# [33] = molecular target: Fuc(a1-3)[Gal(b1-4)]GlcNAc(b1-2)Man
# In short: as §1
# [34] = molecular target: Fuc(a1-3)[Gal(b1-4)]GlcNAc(b1-2)Man(a1-3)[Fuc(a1-3)[Gal(b1-4)]GlcNAc(b1-2)Man(a1-6)]Man(b1-4)GlcNAc(b1-4)GlcNAc
# In short: as §1
# [35] = molecular target: Fuc(a1-3)[Gal(b1-4)]GlcNAc(b1-2)Man(a1-3)[Fuc(a1-3)[Gal(b1-4)]GlcNAc(b1-2)Man(a1-6)]Man(b1-4)GlcNAc(b1-4)[Fuc(a1-6)]GlcNAc
# In short: as §1
# [36] = molecular target: Fuc(a1-3)[Gal(b1-4)]GlcNAc(b1-3)Gal(b1-3)[Fuc(a1-4)]GlcNAc
# In short: as §1
# [37] = molecular target: Fuc(a1-3)[Gal(b1-4)]GlcNAc(b1-3)Gal(b1-4)[Fuc(a1-3)]GlcNAc
# In short: as §1
# [38] = molecular target: Fuc(a1-3)[Gal(b1-4)]GlcNAc(b1-3)Gal(b1-4)[Fuc(a1-3)]GlcNAc(b1-3)Gal(b1-4)[Fuc(a1-3)]GlcNAc
# In short: as §1
# [39] = molecular target: Fuc(a1-3)[Gal(b1-4)]GlcNAc(b1-3)GalNAc
# In short: as §1
# [40] = molecular target: Fuc(a1-3)[Gal(b1-4)]GlcNAc(b1-6)GalNAc
# In short: as §1
# [41] = molecular target: Fuc(a1-3)[Gal(b1-4)]GlcNAc(b1-6)[Gal(b1-3)GlcNAc(b1-3)]Gal(b1-4)Glc
# In short: as §1
# [42] = molecular target: Fuc(a1-3)[Gal(b1-4)]GlcNAc6S
# In short: as §1
# [43] = molecular target: Fuc(a1-3)[Gal3S(b1-4)]Glc
# In short: as §1
# [44] = molecular target: Fuc(a1-3)[Gal3S(b1-4)]GlcNAc
# In short: as §1
# [45] = molecular target: Fuc(a1-3)[Gal3S(b1-4)]GlcNAc6S
# In short: as §1
# [46] = molecular target: Fuc(a1-3)[GalNAc(b1-4)]GlcNAc
# In short: as §1
# [47] = molecular target: Fuc(a1-3)[GalNAc(b1-4)]GlcNAc6S
# In short: as §1
# Fuc(a1-4)GlcNAc = molecular target: Fuc(a1-4)GlcNAc
# In short: as §1
# Fuc(b1-3)GlcNAc = molecular target: Fuc(b1-3)GlcNAc
# In short: as §1
# Gal(a1-2)Gal = molecular target: Gal(a1-2)Gal
# In short: as §1
# Gal(a1-3)Gal = molecular target: Gal(a1-3)Gal
# In short: as §1
# Gal(a1-3)Gal(b1-3)GlcNAc = molecular target: Gal(a1-3)Gal(b1-3)GlcNAc
# In short: as §1
# [48] = molecular target: Gal(a1-3)Gal(b1-3)GlcNAc(b1-2)Man
# In short: as §1
# [49] = molecular target: Gal(a1-3)Gal(b1-3)GlcNAc(b1-2)Man(a1-3)[Gal(a1-3)Gal(b1-3)GlcNAc(b1-2)Man(a1-6)]Man(b1-4)GlcNAc(b1-4)GlcNAc
# In short: as §1
# [50] = molecular target: Gal(a1-3)Gal(b1-3)GlcNAc(b1-3)GalNAc
# In short: as §1
# [51] = molecular target: Gal(a1-3)Gal(b1-3)GlcNAc(b1-6)GalNAc
# In short: as §1
# [52] = molecular target: Gal(a1-3)Gal(b1-3)[Fuc(a1-4)]GlcNAc(b1-2)Man(a1-3)[Gal(a1-3)Gal(b1-3)[Fuc(a1-4)]GlcNAc(b1-2)Man(a1-6)]Man(b1-4)GlcNAc(b1-4)GlcNAc
# In short: as §1
# Gal(a1-3)Gal(b1-4)Glc = molecular target: Gal(a1-3)Gal(b1-4)Glc
# In short: as §1
# Gal(a1-3)Gal(b1-4)GlcNAc = molecular target: Gal(a1-3)Gal(b1-4)GlcNAc
# In short: as §1
binder,measurement,setting,value
B1,glycan array binding signal (z-score),[1],-0.284
same,glycan array binding signal (z-score),[2],-0.335
same,glycan array binding signal (z-score),[3],-0.29
same,glycan array binding signal (z-score),[4],-0.381
same,glycan array binding signal (z-score),[5],-0.341
same,glycan array binding signal (z-score),[6],-0.31
same,glycan array binding signal (z-score),[7],-0.336
same,glycan array binding signal (z-score),[8],0.036
same,glycan array binding signal (z-score),[9],-0.234
same,glycan array binding signal (z-score),[10],-0.091
same,glycan array binding signal (z-score),[11],-0.36
same,glycan array binding signal (z-score),[12],-0.378
same,glycan array binding signal (z-score),[13],-0.358
same,glycan array binding signal (z-score),[14],-0.375
same,glycan array binding signal (z-score),[15],-0.376
same,glycan array binding signal (z-score),[16],-0.363
same,glycan array binding signal (z-score),[17],-0.354
same,glycan array binding signal (z-score),[18],1.5
same,glycan array binding signal (z-score),[19],-0.369
same,glycan array binding signal (z-score),[20],-0.301
same,glycan array binding signal (z-score),[21],-0.283
same,glycan array binding signal (z-score),[22],0.488
same,glycan array binding signal (z-score),[23],-0.243
same,glycan array binding signal (z-score),[24],-0.369
same,glycan array binding signal (z-score),[25],-0.334
same,glycan array binding signal (z-score),[26],0.131
same,glycan array binding signal (z-score),[27],-0.33
same,glycan array binding signal (z-score),[28],-0.341
same,glycan array binding signal (z-score),[29],3.44
same,glycan array binding signal (z-score),[30],-0.316
same,glycan array binding signal (z-score),Fuc(a1-3)GlcNAc,-0.304
same,glycan array binding signal (z-score),[31],-0.303
same,glycan array binding signal (z-score),[32],-0.348
same,glycan array binding signal (z-score),[33],-0.306
same,glycan array binding signal (z-score),[34],-0.295
same,glycan array binding signal (z-score),[35],-0.389
same,glycan array binding signal (z-score),[36],-0.287
same,glycan array binding signal (z-score),[37],-0.323
same,glycan array binding signal (z-score),[38],-0.363
same,glycan array binding signal (z-score),[39],-0.302
same,glycan array binding signal (z-score),[40],-0.343
same,glycan array binding signal (z-score),[41],-0.207
same,glycan array binding signal (z-score),[42],-0.314
same,glycan array binding signal (z-score),[43],-0.346
same,glycan array binding signal (z-score),[44],-0.278
same,glycan array binding signal (z-score),[45],-0.353
same,glycan array binding signal (z-score),[46],2.49
same,glycan array binding signal (z-score),[47],-0.075
same,glycan array binding signal (z-score),Fuc(a1-4)GlcNAc,-0.326
same,glycan array binding signal (z-score),Fuc(b1-3)GlcNAc,-0.305
same,glycan array binding signal (z-score),Gal(a1-2)Gal,-0.289
same,glycan array binding signal (z-score),Gal(a1-3)Gal,-0.422
same,glycan array binding signal (z-score),Gal(a1-3)Gal(b1-3)GlcNAc,-0.316
same,glycan array binding signal (z-score),[48],-0.359
same,glycan array binding signal (z-score),[49],-0.338
same,glycan array binding signal (z-score),[50],-0.367
same,glycan array binding signal (z-score),[51],-0.391
same,glycan array binding signal (z-score),[52],-0.239
same,glycan array binding signal (z-score),Gal(a1-3)Gal(b1-4)Glc,-0.336
same,glycan array binding signal (z-score),Gal(a1-3)Gal(b1-4)GlcNAc,-0.091
